Measured values: paper PMC4583372
Residue numbers refer to the chain shown, from its start. Results are given in words; binding and its absence hold for the method and conditions named. Binding seen in cells or lysates may run through a third protein. Some binding calls cover weakened binding; strength is not graded here.

Sequences of proteins named here, by UniProt entry; tags and fusion partners are left off. A change or cut given only in a name is not applied to a line headed by its entry.
UniProt P32958: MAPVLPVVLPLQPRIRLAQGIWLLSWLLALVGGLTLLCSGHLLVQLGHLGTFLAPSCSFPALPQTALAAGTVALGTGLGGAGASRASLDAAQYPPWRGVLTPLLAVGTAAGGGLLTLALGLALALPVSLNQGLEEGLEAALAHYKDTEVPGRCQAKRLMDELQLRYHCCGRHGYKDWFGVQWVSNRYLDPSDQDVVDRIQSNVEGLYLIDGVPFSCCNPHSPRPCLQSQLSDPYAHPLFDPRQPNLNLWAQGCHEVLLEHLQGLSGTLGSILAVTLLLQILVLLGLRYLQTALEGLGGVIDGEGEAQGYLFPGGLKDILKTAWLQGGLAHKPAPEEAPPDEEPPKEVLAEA
UniProt P60879: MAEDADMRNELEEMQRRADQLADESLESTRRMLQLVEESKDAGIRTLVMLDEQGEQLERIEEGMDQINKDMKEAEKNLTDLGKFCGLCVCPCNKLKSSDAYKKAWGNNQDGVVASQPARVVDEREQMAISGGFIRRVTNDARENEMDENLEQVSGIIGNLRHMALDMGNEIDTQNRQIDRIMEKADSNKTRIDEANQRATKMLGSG
UniProt P62897: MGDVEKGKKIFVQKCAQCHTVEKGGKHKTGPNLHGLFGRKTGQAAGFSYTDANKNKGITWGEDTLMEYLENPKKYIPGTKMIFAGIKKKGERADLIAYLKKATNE
UniProt P20443: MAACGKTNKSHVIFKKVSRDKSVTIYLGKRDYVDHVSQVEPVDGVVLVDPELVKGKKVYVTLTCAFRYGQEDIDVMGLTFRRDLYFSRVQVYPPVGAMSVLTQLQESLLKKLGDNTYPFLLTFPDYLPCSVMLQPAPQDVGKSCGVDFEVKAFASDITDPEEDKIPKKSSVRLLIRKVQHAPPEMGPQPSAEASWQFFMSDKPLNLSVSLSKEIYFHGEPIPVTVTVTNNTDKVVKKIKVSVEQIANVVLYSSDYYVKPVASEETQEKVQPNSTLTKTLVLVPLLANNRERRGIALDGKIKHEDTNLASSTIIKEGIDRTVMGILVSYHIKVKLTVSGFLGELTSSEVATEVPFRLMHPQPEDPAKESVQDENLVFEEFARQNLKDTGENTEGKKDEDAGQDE
UniProt P63044: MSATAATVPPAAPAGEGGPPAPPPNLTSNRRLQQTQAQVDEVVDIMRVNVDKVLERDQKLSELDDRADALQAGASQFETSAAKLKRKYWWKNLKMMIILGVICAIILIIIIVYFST
UniProt E1AZ71: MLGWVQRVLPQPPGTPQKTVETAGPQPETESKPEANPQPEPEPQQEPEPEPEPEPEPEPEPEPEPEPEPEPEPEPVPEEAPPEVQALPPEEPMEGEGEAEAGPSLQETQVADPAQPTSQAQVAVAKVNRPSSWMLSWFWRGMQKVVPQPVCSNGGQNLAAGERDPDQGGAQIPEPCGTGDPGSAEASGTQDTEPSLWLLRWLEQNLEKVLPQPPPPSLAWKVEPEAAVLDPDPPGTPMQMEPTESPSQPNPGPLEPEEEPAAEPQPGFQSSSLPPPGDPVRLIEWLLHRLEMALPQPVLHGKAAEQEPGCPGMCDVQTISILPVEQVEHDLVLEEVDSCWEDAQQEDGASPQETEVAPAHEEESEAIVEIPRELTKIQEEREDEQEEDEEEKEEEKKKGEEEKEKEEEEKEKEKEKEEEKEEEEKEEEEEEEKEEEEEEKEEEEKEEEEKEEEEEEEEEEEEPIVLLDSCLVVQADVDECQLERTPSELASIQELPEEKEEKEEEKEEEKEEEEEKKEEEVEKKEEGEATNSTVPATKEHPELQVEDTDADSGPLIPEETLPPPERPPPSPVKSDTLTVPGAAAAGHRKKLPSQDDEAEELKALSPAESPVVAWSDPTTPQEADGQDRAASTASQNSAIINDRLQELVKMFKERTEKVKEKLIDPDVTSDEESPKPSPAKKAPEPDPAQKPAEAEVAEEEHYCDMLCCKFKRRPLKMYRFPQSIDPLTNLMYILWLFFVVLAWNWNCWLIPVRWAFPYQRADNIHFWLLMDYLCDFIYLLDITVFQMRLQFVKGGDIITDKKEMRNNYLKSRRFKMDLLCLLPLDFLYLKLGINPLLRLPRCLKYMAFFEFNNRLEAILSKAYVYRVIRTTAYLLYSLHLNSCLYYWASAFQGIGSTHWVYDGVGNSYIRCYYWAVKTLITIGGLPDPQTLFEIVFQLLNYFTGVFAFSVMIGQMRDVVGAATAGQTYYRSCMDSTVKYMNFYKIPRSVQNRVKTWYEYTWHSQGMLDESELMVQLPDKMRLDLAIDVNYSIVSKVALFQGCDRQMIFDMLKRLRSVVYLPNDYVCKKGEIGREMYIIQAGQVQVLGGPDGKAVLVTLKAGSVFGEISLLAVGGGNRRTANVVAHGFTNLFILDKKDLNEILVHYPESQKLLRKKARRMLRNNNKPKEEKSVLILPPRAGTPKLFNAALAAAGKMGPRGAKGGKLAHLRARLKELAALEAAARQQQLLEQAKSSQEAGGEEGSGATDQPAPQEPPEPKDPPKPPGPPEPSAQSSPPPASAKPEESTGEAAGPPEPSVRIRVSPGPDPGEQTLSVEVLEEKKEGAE

Legend:
[1] = molecular target: T1, Peripherin-2 also known as RDS (retinal degeneration slow) (mouse (endogenous in retina)) (UniProt P15499); experiment: co-IP; CHAPS-solubilized WT mouse retinal extracts; IP with RDS, ROM-1 or Syn3B antibodies; western blot
T1 sequence: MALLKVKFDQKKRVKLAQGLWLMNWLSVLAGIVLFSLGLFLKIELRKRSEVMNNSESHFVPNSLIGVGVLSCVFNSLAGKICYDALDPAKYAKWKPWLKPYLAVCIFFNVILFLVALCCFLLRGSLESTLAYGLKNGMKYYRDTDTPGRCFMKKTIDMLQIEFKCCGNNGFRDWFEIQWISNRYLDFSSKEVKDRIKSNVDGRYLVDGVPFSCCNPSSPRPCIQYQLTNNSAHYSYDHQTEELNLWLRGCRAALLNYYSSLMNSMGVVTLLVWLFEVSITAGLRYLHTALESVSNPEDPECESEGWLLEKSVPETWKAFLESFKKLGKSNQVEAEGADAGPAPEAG

[2] = molecular target: ROM-1 (rod outer segment protein 1) (mouse (endogenous in retina)) (UniProt P32958); experiment: as above
[3] = molecular target: T1, Peripherin-2 also known as RDS (retinal degeneration slow) (mouse (endogenous in retina)); experiment: proximity ligation; Duolink In Situ kit on WT mouse retinal cryosections; paired sections with regular immunofluorescence
[4] = molecular target: T2, Syntaxin-3 isoform B (Stx3) (mouse (endogenous in retina)) (UniProt Q64704); experiment: co-IP; Triton X-100 extracted WT mouse retinas; IP with RDS, ROM-1 or Syn3B antibodies and protein A sepharose; western blot
T2 sequence: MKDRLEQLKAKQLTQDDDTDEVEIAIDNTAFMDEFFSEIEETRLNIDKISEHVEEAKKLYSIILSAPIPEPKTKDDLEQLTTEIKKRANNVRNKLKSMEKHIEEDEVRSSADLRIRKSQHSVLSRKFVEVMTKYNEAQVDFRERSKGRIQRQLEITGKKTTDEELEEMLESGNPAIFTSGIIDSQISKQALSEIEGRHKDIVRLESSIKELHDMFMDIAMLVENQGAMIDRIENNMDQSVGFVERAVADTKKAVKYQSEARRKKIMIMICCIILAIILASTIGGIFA

[5] = molecular target: T2, Syntaxin-3 isoform B (Stx3) (mouse (endogenous in retina)); experiment: co-IP; retinal extracts of WT, nrl-/-, rds C150S/C150S, rds Y141C/Y141C, R172W/rds-/- and R172W/rds-/-/nrl-/- mice; detergent not indicated; IP with anti-Syn3B-478 (elution non-reducing, or eluents treated with EndoH) or with RDS antibodies (mAB 2E7 or RDS-CT); western blot
[6] = molecular target: T3, Syn3B expressed in HEK293 cells (pCMV6-syntaxin 3B) (UniProt Q64704); experiment: co-IP; HEK293 cells double transfected; extracts solubilized with Triton X-100; IP with RDS, ROM-1 or Syn3B antibodies and protein A sepharose; western blot
T3 sequence: T2 sequence

[7] = molecular target: T4, WT RDS expressed in HEK293 cells (UniProt P15499); experiment: co-IP; HEK293 cells double transfected; extracts solubilized with CHAPS; IP with RDS, ROM-1 or Syn3B antibodies; western blot
T4 sequence: T1 sequence

[8] = molecular target: WT ROM-1 expressed in HEK293 cells (UniProt P32958); experiment: as above
[9] = molecular target: T4, WT RDS expressed in HEK293 cells; experiment: co-IP; HEK293 cells single transfected; extracts mixed in a 1:1 ratio (based on total protein) after extraction, then IP; western blot
[10] = molecular target: T5, C150S-RDS expressed in HEK293 cells (UniProt P15499); experiment: co-IP; HEK293 cells transfected with WT or C150S RDS and Syn3B; detergent not indicated; IP for RDS (mAB 2E7 or RDS-CT); western blot for Syn3B
T5 sequence: T1 sequence with C150S

[11] = molecular target: T4, WT RDS expressed in HEK293 cells; experiment: co-IP; HEK293 cells double transfected; extracts solubilized with Triton X-100; IP with RDS, ROM-1 or Syn3B antibodies and protein A sepharose; western blot
[12] = molecular target: WT ROM-1 expressed in HEK293 cells (UniProt P32958); experiment: as above

“synaptosomal-associated protein 25 (SNAP25) (from UniProt P60879-1 1-206)” was tested, and the binding [1] was “binds” and the binding [2] was “binds”.

“cytochrome C (from UniProt P62897 1-105)” was tested, and the binding [3] was “no binding”.

“ROM-1 (rod outer segment protein 1) (from UniProt P32958 1-351)” was tested, and the binding [3] was “binds”, the binding [4] was “binds” and the binding [5] was “binds”.

With “WT ROM-1 expressed in HEK293 cells (from UniProt P32958 1-351)” the binding [6] was “binds”.

In the case of arrestin 1 (from UniProt P20443 1-403), the binding [4] is reported as “no binding”.

For “VAMP2-myc-DDK expressed in HEK293 cells (from UniProt P63044 1-116)”, the binding [6] was “binds”.

In the case of “GARP/beta subunit of the rod cyclic nucleotide gated channel (CNGβ) (from UniProt E1AZ71 1-1325)”, the binding [4] is reported as “no binding”.

“SNAP-25 expressed in HEK293 cells (pCMV-SPORT6-SNAP-25) (from UniProt P60879 1-206)” was tested, and the binding [7] was “binds” and the binding [8] was “binds”.

B1: WT RDS expressed in HEK293 cells (protein, UniProt P15499 1-346)
chain: T1 sequence
B1 was tested, and the binding [6] was “binds”.

B2: Syn3B expressed in HEK293 cells (pCMV6-syntaxin 3B) (protein, UniProt Q64704-2 1-287)
chain: T2 sequence
For B2, the binding [9] was “binds”, the binding [10] was “binds” and the binding [11] was “binds”. The binding [12] was “binds”.

B3: Peripherin-2 also known as RDS (retinal degeneration slow) (protein, UniProt P15499 1-346)
chain: T1 sequence
B3 was tested, and the binding [4] was “binds” and the binding [5] was “binds”.
